According to PMC12713088:
Results are given in words; binding and its absence hold for the method and conditions named. Sequences can lack the tags named with a protein.

What was measured:
Assay in all cases: two-hybrid; pGADT7 and pGBKT7 fusions, strains AH109 and Y187 mated; growth on SD-LWH with 0 or 3 mM 3-AT
Conditions in all cases: remark: other sources report otherwise
[1] = molecular target: T1, TRB2, yeast two-hybrid fusion (Arabidopsis thaliana), Q9FJW5
T1 chain: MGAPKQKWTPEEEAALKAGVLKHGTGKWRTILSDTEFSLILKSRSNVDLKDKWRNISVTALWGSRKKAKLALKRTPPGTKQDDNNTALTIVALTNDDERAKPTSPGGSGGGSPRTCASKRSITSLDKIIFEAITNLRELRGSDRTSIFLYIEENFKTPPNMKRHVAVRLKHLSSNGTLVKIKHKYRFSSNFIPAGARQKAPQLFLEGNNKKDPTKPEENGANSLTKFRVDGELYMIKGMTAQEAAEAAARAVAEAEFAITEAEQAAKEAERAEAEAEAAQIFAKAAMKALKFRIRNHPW

[2] = molecular target: T2, TRB3, yeast two-hybrid fusion (Arabidopsis thaliana), Q9M2X3
T2 chain: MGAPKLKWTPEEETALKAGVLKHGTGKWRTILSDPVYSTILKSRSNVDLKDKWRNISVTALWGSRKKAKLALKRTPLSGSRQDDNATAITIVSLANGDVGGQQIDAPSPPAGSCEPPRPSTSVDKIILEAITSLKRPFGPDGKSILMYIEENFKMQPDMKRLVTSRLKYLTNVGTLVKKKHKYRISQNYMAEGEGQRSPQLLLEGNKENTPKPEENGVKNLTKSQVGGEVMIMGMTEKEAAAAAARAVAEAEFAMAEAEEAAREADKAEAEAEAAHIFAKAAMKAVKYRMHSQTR

[3] = molecular target: T3, INCURVATA 11 (ICU11), yeast two-hybrid fusion (Arabidopsis thaliana), Q3ED68
T3 chain: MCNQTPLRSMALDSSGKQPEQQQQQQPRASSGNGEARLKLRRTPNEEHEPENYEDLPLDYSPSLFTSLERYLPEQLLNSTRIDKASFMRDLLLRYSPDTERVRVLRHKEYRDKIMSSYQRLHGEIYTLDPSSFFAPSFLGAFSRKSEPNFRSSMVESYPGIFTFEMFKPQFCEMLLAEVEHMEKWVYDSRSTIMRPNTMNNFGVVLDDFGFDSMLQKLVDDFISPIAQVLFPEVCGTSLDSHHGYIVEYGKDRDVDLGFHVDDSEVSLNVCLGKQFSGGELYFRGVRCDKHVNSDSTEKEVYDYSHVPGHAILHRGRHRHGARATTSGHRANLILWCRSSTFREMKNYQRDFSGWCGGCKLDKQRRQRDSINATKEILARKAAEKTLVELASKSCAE

[4] = molecular target: T4, TRB1, yeast two-hybrid fusion (Arabidopsis thaliana), Q8VWK4
T4 chain: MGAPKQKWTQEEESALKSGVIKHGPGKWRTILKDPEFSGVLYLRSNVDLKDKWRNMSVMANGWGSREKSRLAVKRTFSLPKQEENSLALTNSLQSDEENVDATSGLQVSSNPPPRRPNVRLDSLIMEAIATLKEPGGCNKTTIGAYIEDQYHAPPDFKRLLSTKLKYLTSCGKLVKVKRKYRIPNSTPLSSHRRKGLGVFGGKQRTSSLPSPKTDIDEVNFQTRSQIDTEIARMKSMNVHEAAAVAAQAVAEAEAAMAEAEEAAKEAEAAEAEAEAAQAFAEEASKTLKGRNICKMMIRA

binding [1]: no binding | binding [2]: no binding | binding [3]: no binding | binding [4]: no binding
B1: JUMONJI14 (JMJ14), yeast two-hybrid fusion, Q8GUI6 1-954 (enzyme)
chain: MDQLASLAESVAMEEDSEKQSIKGESSLEPDSTPSSPKITARWNPSEACRPLVDDAPIFYPTNEDFDDPLGYIEKLRSKAESYGICRIVPPVAWRPPCPLKEKKIWENSKFPTRIQFIDLLQNREPIKKSTKTKKRKRRRISKIGYTRRKRDSGCDTASSGSSDSEGKFGFQTGPDFTLEEFQKYDEYFKECYFQSEDHPGSKASENKKFKPKVKDLEGEYWRIVEQATDEVEVYYGADLETKKFGSGFPKYKPGYPISEADQYSQCGWNLNNLSRLPGSVLAFESCDISGVIVPWLYVGMCFSTFCWHVEDHHLYSMNYLHTGDPKVWYGIPGNHAESFENVMKKRLPDLFEEQPDLLHQLVTQLSPRILKEEGVPVYRAVQRSGEFILTFPKAYHSGFNCGFNCAEAVNVAPVDWLVHGQNAVEGYSKQRRKSSLSHDKLLLGAAMEATYCLWELSLSKKKTPVIARWKRVCSEDGLLTKAVKKRVQMEEERLNHLQDGFSLRKMEGDFDNKRERECFLCFYDLHMSASSCKCSPNRFACLIHAKDLCSCESKDRYILIRHTLDELWALVRALEGDLDAIDLWASKCRDQYPSQHPRAREYAYLKSAPCIKSRGSSKVQQREQNNLQLVSERLQSDLTSNKEVQLKQDGDSDVNRHGHESERNHVHGITDKSAVTDVKLGVGGKFDEKKISVESQNPHSVSDVGCSELAKKVDGCLGGKDQNAATNRLSLSVELLSSGSLVVKKLWCSKQAIYPKGFKSRVKFLSVLDPTNLTNYISEVLDAGLLGPLFRVSVEDYPTENFSNVSAEKCWQMVTQRLKLEIIKKCDQPVSSLTSLQPLESINGLEMFGFLSPHVIKVVEALDPKHQLEEYWNQKAVKLFGAEPIKEGEKDDTEKGGASDPSLDRDTRLLRGLLKKATPEELVMMHGLLCGETRNTELKEELSTLVDKMEISP
